# Measurements as given in the supplement of paper PMC8728848.
# The list shows a part of the results.
# Assays:
# Test in all cases: glycan array binding signal (z-score within array); higher = stronger binding
# Settings in all cases: glycan notation: IUPAC condensed, linker removed
# [1] = target: Gal(a1-3)Gal(b1-4)GlcNAc(b1-3)GalNAc
# Summary of the method: (§1)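 Columns mapping to the same glycan were averaged after glycan names were converted to IUPAC-condensed notation. The data come from 3228 arrays in the Consortium for Functional Glycomics database, limited to those with an available protein sequence. Binding is reported as a within-array Z-score averaged across arrays of one protein sequence and across linkers.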
# [2] = target: Gal(a1-3)Gal(b1-4)[Fuc(a1-3)]GlcNAc
# Summary of the method: as §1
# [3] = target: Gal(a1-3)Gal(b1-4)[Fuc(a1-3)]GlcNAc(b1-2)Man(a1-3)[Gal(a1-3)Gal(b1-4)[Fuc(a1-3)]GlcNAc(b1-2)Man(a1-6)]Man(b1-4)GlcNAc(b1-4)GlcNAc
# Summary of the method: as §1
# Gal(a1-3)GalNAc = target: Gal(a1-3)GalNAc
# Summary of the method: as §1
# [4] = target: Gal(a1-3)[Gal(a1-4)]Gal(b1-4)GlcNAc
# Summary of the method: as §1
# [5] = target: Gal(a1-4)Gal(b1-3)GlcNAc(b1-2)Man(a1-3)[Gal(a1-4)Gal(b1-3)GlcNAc(b1-2)Man(a1-6)]Man(b1-4)GlcNAc(b1-4)GlcNAc
# Summary of the method: as §1
# Gal(a1-4)Gal(b1-4)Glc = target: Gal(a1-4)Gal(b1-4)Glc
# Summary of the method: as §1
# Gal(a1-4)Gal(b1-4)GlcNAc = target: Gal(a1-4)Gal(b1-4)GlcNAc
# Summary of the method: as §1
# [6] = target: Gal(a1-4)Gal(b1-4)GlcNAc(b1-2)Man(a1-3)[Gal(a1-4)Gal(b1-4)GlcNAc(b1-2)Man(a1-6)]Man(b1-4)GlcNAc(b1-4)GlcNAc
# Summary of the method: as §1
# [7] = target: Gal(a1-4)Gal(b1-4)GlcNAc(b1-3)Gal(b1-4)Glc
# Summary of the method: as §1
# Gal(a1-4)GlcNAc = target: Gal(a1-4)GlcNAc
# Summary of the method: as §1
# Gal(a1-6)Glc = target: Gal(a1-6)Glc
# Summary of the method: as §1
# Gal(b1-2)Gal = target: Gal(b1-2)Gal
# Summary of the method: as §1
# Gal(b1-3)Gal = target: Gal(b1-3)Gal
# Summary of the method: as §1
# Gal(b1-3)Gal(b1-4)GlcNAc = target: Gal(b1-3)Gal(b1-4)GlcNAc
# Summary of the method: as §1
# [8] = target: Gal(b1-3)Gal(b1-4)GlcNAc(b1-2)Man(a1-3)[Gal(b1-3)Gal(b1-4)GlcNAc(b1-2)Man(a1-6)]Man(b1-4)GlcNAc(b1-4)GlcNAc
# Summary of the method: as §1
# Gal(b1-3)GalNAc = target: Gal(b1-3)GalNAc
# Summary of the method: as §1
# [9] = target: Gal(b1-3)GalNAc(a1-3)[Fuc(a1-2)]Gal(b1-4)Glc
# Summary of the method: as §1
# [10] = target: Gal(b1-3)GalNAc(a1-3)[Fuc(a1-2)]Gal(b1-4)GlcNAc
# Summary of the method: as §1
# [11] = target: Gal(b1-3)GalNAc(b1-3)Gal(a1-4)Gal(b1-4)Glc
# Summary of the method: as §1
# [12] = target: Gal(b1-3)GalNAc(b1-4)Gal(b1-4)Glc
# Summary of the method: as §1
# [13] = target: Gal(b1-3)GalNAc(b1-4)[Neu5Ac(a2-3)]Gal(b1-4)Glc
# Summary of the method: as §1
# Gal(b1-3)GlcNAc = target: Gal(b1-3)GlcNAc
# Summary of the method: as §1
# [14] = target: Gal(b1-3)GlcNAc(a1-6)Gal(b1-4)GlcNAc
# Summary of the method: as §1
# [15] = target: Gal(b1-3)GlcNAc(b1-2)Man(a1-3)[Gal(b1-3)GlcNAc(b1-2)Man(a1-6)]Man(b1-4)GlcNAc(b1-4)GlcNAc
# Summary of the method: as §1
# [16] = target: Gal(b1-3)GlcNAc(b1-2)Man(a1-3)[Gal(b1-3)GlcNAc(b1-2)Man(a1-6)]Man(b1-4)GlcNAc(b1-4)[Fuc(a1-6)]GlcNAc
# Summary of the method: as §1
# [17] = target: Gal(b1-3)GlcNAc(b1-2)[Gal(b1-3)GlcNAc(b1-6)]Man(a1-6)[Gal(b1-3)GlcNAc(b1-2)Man(a1-3)]Man(b1-4)GlcNAc(b1-4)GlcNAc
# Summary of the method: as §1
# [18] = target: Gal(b1-3)GlcNAc(b1-3)Gal(b1-3)GlcNAc
# Summary of the method: as §1
# [19] = target: Gal(b1-3)GlcNAc(b1-3)Gal(b1-4)Glc
# Summary of the method: as §1
# [20] = target: Gal(b1-3)GlcNAc(b1-3)Gal(b1-4)GlcNAc
# Summary of the method: as §1
# [21] = target: Gal(b1-3)GlcNAc(b1-3)Gal(b1-4)GlcNAc(b1-6)[Gal(b1-3)GlcNAc(b1-3)]Gal(b1-4)Glc
# Summary of the method: as §1
# [22] = target: Gal(b1-3)GlcNAc(b1-3)Gal(b1-4)[Fuc(a1-3)]GlcNAc(b1-6)[Gal(b1-3)GlcNAc(b1-3)]Gal(b1-4)Glc
# Summary of the method: as §1
# [23] = target: Gal(b1-3)GlcNAc(b1-3)GalNAc
# Summary of the method: as §1
# [24] = target: Gal(b1-3)GlcNAc(b1-6)Gal(b1-4)GlcNAc
# Summary of the method: as §1
# [25] = target: Gal(b1-3)[Fuc(a1-4)]GlcNAc
# Summary of the method: as §1
# [26] = target: Gal(b1-3)[Fuc(a1-4)]GlcNAc(b1-2)Man(a1-3)[Gal(b1-3)[Fuc(a1-4)]GlcNAc(b1-2)Man(a1-6)]Man(b1-4)GlcNAc(b1-4)GlcNAc
# Summary of the method: as §1
# [27] = target: Gal(b1-3)[Fuc(a1-4)]GlcNAc(b1-2)Man(a1-3)[Gal(b1-3)[Fuc(a1-4)]GlcNAc(b1-2)Man(a1-6)]Man(b1-4)GlcNAc(b1-4)[Fuc(a1-6)]GlcNAc
# Summary of the method: as §1
# [28] = target: Gal(b1-3)[Fuc(a1-4)]GlcNAc(b1-3)Gal(b1-3)[Fuc(a1-4)]GlcNAc
# Summary of the method: as §1
binder,measurement,setting,value
"UEA-I (Ulex europaeus), P22972 (protein) SDDLSFKFKNFSQNGKDLSFQGDASVIETGVLQLNKVGNNLPDETGGIARYIAPIHIWNCNTGEVASFITSFSFFMETSANPKAATDGLTFFLAPPDSPLRRAGGYFGLFEDTKDNDSSYQTVAVEFDTIGSPVNFDDPGFPHIGIDVNRVKSINAERWNKRYGLNNVANVEIIYEASSKTLTASLTYPSDQTSISVTSIVDLKEILPEWVSVGFSGGTYIGRQATHEVLNWYFTSNLIN",glycan array binding signal (z-score),[1],-0.181
same,glycan array binding signal (z-score),[2],-0.184
same,glycan array binding signal (z-score),[3],-0.177
same,glycan array binding signal (z-score),Gal(a1-3)GalNAc,-0.187
same,glycan array binding signal (z-score),[4],-0.184
same,glycan array binding signal (z-score),[5],-0.17
same,glycan array binding signal (z-score),Gal(a1-4)Gal(b1-4)Glc,-0.167
same,glycan array binding signal (z-score),Gal(a1-4)Gal(b1-4)GlcNAc,-0.176
same,glycan array binding signal (z-score),[6],-0.126
same,glycan array binding signal (z-score),[7],-0.177
same,glycan array binding signal (z-score),Gal(a1-4)GlcNAc,-0.174
same,glycan array binding signal (z-score),Gal(a1-6)Glc,-0.182
same,glycan array binding signal (z-score),Gal(b1-2)Gal,-0.166
same,glycan array binding signal (z-score),Gal(b1-3)Gal,-0.171
same,glycan array binding signal (z-score),Gal(b1-3)Gal(b1-4)GlcNAc,-0.18
same,glycan array binding signal (z-score),[8],-0.174
same,glycan array binding signal (z-score),Gal(b1-3)GalNAc,-0.184
same,glycan array binding signal (z-score),[9],-0.177
same,glycan array binding signal (z-score),[10],-0.182
same,glycan array binding signal (z-score),[11],-0.181
same,glycan array binding signal (z-score),[12],-0.168
same,glycan array binding signal (z-score),[13],-0.18
same,glycan array binding signal (z-score),Gal(b1-3)GlcNAc,-0.177
same,glycan array binding signal (z-score),[14],-0.173
same,glycan array binding signal (z-score),[15],-0.172
same,glycan array binding signal (z-score),[16],-0.174
same,glycan array binding signal (z-score),[17],-0.164
same,glycan array binding signal (z-score),[18],-0.175
same,glycan array binding signal (z-score),[19],-0.18
same,glycan array binding signal (z-score),[20],-0.177
same,glycan array binding signal (z-score),[21],-0.172
same,glycan array binding signal (z-score),[22],-0.182
same,glycan array binding signal (z-score),[23],-0.17
same,glycan array binding signal (z-score),[24],-0.168
same,glycan array binding signal (z-score),[25],-0.179
same,glycan array binding signal (z-score),[26],-0.169
same,glycan array binding signal (z-score),[27],-0.176
same,glycan array binding signal (z-score),[28],-0.175
